# The campaign covered roughly 310,000 compounds. About 14,000 (4.5%) showed an effect of 50% or more. The effect is printed as a negative number. Some of the results follow.
# Target: human ether-à-go-go-related gene (hERG) potassium channel (human, UniProt Q12809)
# Test: primary screen, population patch clamp on CHO cells stably expressing hERG
# 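Further: peak tail current of the secondary pulse compared with the same well before compound.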
# human ether-à-go-go-related gene (hERG) potassium channel, sequence (Q12809 whole entry, looked up): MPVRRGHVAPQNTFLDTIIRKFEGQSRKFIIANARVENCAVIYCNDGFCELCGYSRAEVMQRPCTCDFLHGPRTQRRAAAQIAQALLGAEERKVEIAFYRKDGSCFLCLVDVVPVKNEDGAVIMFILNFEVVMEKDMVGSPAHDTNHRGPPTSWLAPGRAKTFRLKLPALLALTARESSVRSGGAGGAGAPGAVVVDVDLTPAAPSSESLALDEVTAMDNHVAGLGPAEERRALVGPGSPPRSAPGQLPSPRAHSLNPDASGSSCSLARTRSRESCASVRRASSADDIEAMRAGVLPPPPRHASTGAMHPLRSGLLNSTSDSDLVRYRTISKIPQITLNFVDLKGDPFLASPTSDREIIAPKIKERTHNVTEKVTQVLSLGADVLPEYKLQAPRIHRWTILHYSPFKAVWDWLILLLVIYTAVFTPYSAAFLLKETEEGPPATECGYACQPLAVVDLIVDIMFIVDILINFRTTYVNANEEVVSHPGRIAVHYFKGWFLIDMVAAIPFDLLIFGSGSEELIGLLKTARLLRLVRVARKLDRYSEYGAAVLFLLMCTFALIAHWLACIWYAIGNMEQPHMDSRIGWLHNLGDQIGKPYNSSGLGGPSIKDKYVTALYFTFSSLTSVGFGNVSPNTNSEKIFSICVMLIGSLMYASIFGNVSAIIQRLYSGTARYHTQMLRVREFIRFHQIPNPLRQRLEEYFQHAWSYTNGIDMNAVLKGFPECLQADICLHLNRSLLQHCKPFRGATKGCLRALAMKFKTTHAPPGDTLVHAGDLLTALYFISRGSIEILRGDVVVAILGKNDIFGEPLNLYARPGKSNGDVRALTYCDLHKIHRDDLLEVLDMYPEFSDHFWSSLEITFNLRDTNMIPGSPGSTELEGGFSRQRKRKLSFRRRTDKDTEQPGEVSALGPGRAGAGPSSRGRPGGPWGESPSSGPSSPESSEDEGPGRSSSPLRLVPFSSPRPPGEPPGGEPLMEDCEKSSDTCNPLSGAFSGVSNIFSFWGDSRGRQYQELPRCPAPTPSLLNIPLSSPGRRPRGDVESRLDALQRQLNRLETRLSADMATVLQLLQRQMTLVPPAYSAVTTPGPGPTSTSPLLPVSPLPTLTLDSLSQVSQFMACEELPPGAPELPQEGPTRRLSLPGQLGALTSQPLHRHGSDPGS
row,Structure (SMILES),"hERG current change (%, negative = inhibition) at 10uM"
1,CCOC(=O)C1=C(CN2CCN(C(=O)c3ccco3)CC2)NC(=O)NC1c1ccc(C)cc1 (centres unmarked),-63.2%
2,Cc1nc2sc(C(c3cccc(F)c3)N3CC(C)OC(C)C3)c(O)n2n1 (centres unmarked),2.42%
3,COC(=O)c1sccc1NC(=O)CN(C)NS(=O)(=O)c1ccc(Cl)cc1,18.7%
4,CCOC(=O)C1CCCN(C(=O)c2cc(S(=O)(=O)N3CCCCC3)ccc2Cl)C1 (centres unmarked),0.869%
5,O=c1c2ccccc2[nH]c(=S)n1Cc1ccc2c(c1)OCO2,4.77%
6,CC(C)c1nc2c([nH]1)c(=O)n(C)c(=O)n2C,20.2%
7,CCN(CC)C(=O)COc1coc(CN2CCN(c3ccccc3)CC2)cc1=O,13.9%
8,CN1C(=O)[C@H](Cc2ccc([N+](=O)[O-])cc2)NC1=S,-0.656%
9,Cc1[nH]c2ccccc2c1-c1nc2ccccc2[nH]1,-6.51%
10,CC1=C(OC(=O)c2ccccc2)C(C)(C)C(c2ccc(Br)cc2)OC1=O (centres unmarked),-9.55%
11,COc1cccc(NC(=O)Nc2nnc(-c3ccccc3SCc3ccccc3)s2)c1,8.22%
12,COc1cccc2sc(Nc3nc(-c4ccncc4)cs3)nc12,21.7%
13,CCOC(=O)N1CCN(c2nc(-c3cccc(OC)c3)cc(C(F)(F)F)n2)CC1,6.67%
14,Cc1ccc(NC(=S)Nc2cccc3ccccc23)cc1,22.7%
15,CCc1ccc(S(=O)(=O)N2CCN(Cc3ccco3)CC2)cc1,-28.7%
16,CCn1nc(C)c(/C=N/NC(=O)c2c[nH]c3ccccc23)c1C,6.1%
17,COC(=O)c1cnc(NNC(=O)c2ccc([N+](=O)[O-])cc2)nc1C(F)(F)F,-11.7%
18,Cc1ccc(Cl)cc1NC(=O)Cn1cccc1,7.71%
19,O=C(CSc1cn(CC(=O)N2CCOCC2)c2ccccc12)N1CCOCC1,12.8%
20,CC(NC(=O)CSC1=NCCS1)c1ccccc1 (centres unmarked),14.3%
21,O=C(Nc1cccc(-n2cnnn2)c1)c1cccc(Cl)c1,-18.9%
22,CC1CCN(C2CCN(S(=O)(=O)c3ccc(C(F)(F)F)cc3)CC2)CC1,-37.6%

row,Structure (SMILES),"hERG current change (%, negative = inhibition) at 10uM"
1,COc1ccc(CNC(=O)C2CCN(S(C)(=O)=O)CC2)cc1,7.39%
2,COc1ccc(-n2ccc(=O)c(C(=O)O)n2)cc1,20.2%
3,NC(=O)c1ccc(C(F)(F)F)n(Cc2ccc(Cl)cc2)c1=O,0.165%
4,CCOC(=O)C1=C(CS(=O)(=O)c2ccccc2)NC(=O)NC1c1ccc(OC)c(OC)c1 (centres unmarked),8.34%
5,Brc1ccc(C2=Nn3cnnc3SC2)cc1,13.6%
6,CC(C)(C)c1cc(=O)[nH]c(SCc2ccccc2Cl)n1,29.9%
7,CCOc1ccc(N(CC(=O)NC2CC3CCC2C3)S(=O)(=O)c2ccc(C)cc2)cc1 (centres unmarked),-11%
8,Cc1ccc(CSCCNC(=O)c2ccc(C)cc2)cc1,19.1%
9,CCOC(=O)C1CCN(C(=O)CSc2nccc(C)n2)CC1,9.79%
10,CC(=O)c1ccc(NC(=O)CSc2nccn2CCc2ccccc2)cc1,-0.986%
11,CC(C)(C)c1ccc(/C=C2\Oc3cc(O)ccc3C2=O)cc1,21.2%
12,CCOc1cc(N2CCOCC2)c(OCC)cc1NC(=O)c1oc2ccccc2c1C,18.6%
13,COc1ccc(C(=O)Nc2nnc(S(=O)(=O)Cc3ccccc3)s2)cc1,14.8%
14,COC(=O)C(Cc1c[nH]c2ccccc12)NC(=O)c1cncc(Br)c1 (centres unmarked),1.85%
15,Cc1ccc(NC(=O)COc2ccc(/C=N/NC(=O)CSCc3ccccc3)cc2)cc1,2.45%
16,Cc1ccc(S(=O)(=O)Nc2ccccc2-c2ccccc2)cc1,5.03%
17,OC(COc1ccc(F)cc1)CN1CCN(CC(O)COc2ccc(F)cc2)CC1 (centres unmarked),-71.5%
18,CCOc1ccc(C(=O)CCC(=O)NNC(=O)c2ccncc2)cc1,7.66%
19,CC(=O)c1cccc(NC(=O)C2CCN(S(C)(=O)=O)CC2)c1,9.7%
20,COc1ccc(CNC(=O)CCc2nnc3ccc(N4CCC5(CC4)OCCO5)nn23)cc1,15.1%
21,N#Cc1ccc(OCC(=O)OCC(=O)Nc2sccc2C(N)=O)cc1,11%
22,O=C(NN1C(=O)C2C3c4ccccc4C(c4ccccc43)C2C1=O)C1CC1 (centres unmarked),8.93%

# Reference: publication PMC4336329 (PLoS ONE, 2015)
